According to the supplement of paper PMC8728848:
The other results are listed elsewhere or left out.

Legend:
Test in all cases: glycan array binding signal (z-score within array); higher = stronger binding
Conditions in all cases: glycan notation: IUPAC condensed, linker removed
[1] = target: Fuc(a1-2)Gal
Outline: (§1)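 Glycan array data came from 3228 arrays in the Consortium for Functional Glycomics database, and only arrays with an available protein sequence were kept. Glycan names were put into IUPAC-condensed notation, and columns mapping to the same glycan were averaged. The binding signal is a within-array Z-score, averaged across arrays of one protein sequence run at different concentrations or buffers and across linkers. A negative Z-score can be read as non-binding.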

[2] = target: Fuc(a1-2)Gal(b1-3)GalNAc
Outline: as §1

[3] = target: Fuc(a1-2)Gal(b1-3)GalNAc(a1-3)[Fuc(a1-2)]Gal(b1-4)Glc
Outline: as §1

[4] = target: Fuc(a1-2)Gal(b1-3)GalNAc(a1-3)[Fuc(a1-2)]Gal(b1-4)GlcNAc
Outline: as §1

[5] = target: Fuc(a1-2)Gal(b1-3)GalNAc(b1-3)Gal
Outline: as §1

[6] = target: Fuc(a1-2)Gal(b1-3)GalNAc(b1-3)Gal(a1-4)Gal(b1-4)Glc
Outline: as §1

[7] = target: Fuc(a1-2)Gal(b1-3)GalNAc(b1-4)[Neu5Ac(a2-3)]Gal(b1-4)Glc
Outline: as §1

[8] = target: Fuc(a1-2)Gal(b1-3)GlcNAc
Outline: as §1

[9] = target: Fuc(a1-2)Gal(b1-3)GlcNAc(b1-2)Man(a1-3)[Fuc(a1-2)Gal(b1-3)GlcNAc(b1-2)Man(a1-6)]Man(b1-4)GlcNAc(b1-4)GlcNAc
Outline: as §1

[10] = target: Fuc(a1-2)Gal(b1-3)GlcNAc(b1-2)Man(a1-3)[Fuc(a1-2)Gal(b1-3)GlcNAc(b1-2)Man(a1-6)]Man(b1-4)GlcNAc(b1-4)[Fuc(a1-6)]GlcNAc
Outline: as §1

[11] = target: Fuc(a1-2)Gal(b1-3)GlcNAc(b1-3)Gal(b1-4)Glc
Outline: as §1

[12] = target: Fuc(a1-2)Gal(b1-3)GlcNAc(b1-3)GalNAc
Outline: as §1

[13] = target: Fuc(a1-2)Gal(b1-3)GlcNAc(b1-3)[Fuc(a1-2)Gal(b1-3)GlcNAc(b1-6)]GalNAc
Outline: as §1

[14] = target: Fuc(a1-2)Gal(b1-3)GlcNAc(b1-3)[Fuc(a1-3)[Gal(b1-4)]GlcNAc(b1-6)]Gal(b1-4)Glc
Outline: as §1

[15] = target: Fuc(a1-2)Gal(b1-3)GlcNAc(b1-3)[Gal(b1-4)GlcNAc(b1-6)]Gal(b1-4)Glc
Outline: as §1

[16] = target: Fuc(a1-2)Gal(b1-3)GlcNAc(b1-3)[Neu5Ac(a2-6)Gal(b1-4)GlcNAc(b1-6)]Gal(b1-4)Glc
Outline: as §1

[17] = target: Fuc(a1-2)Gal(b1-3)GlcNAc6S
Outline: as §1

[18] = target: Fuc(a1-2)Gal(b1-3)[Fuc(a1-4)]GlcNAc
Outline: as §1

[19] = target: Fuc(a1-2)Gal(b1-3)[Fuc(a1-4)]GlcNAc(b1-2)Man(a1-3)[Fuc(a1-2)Gal(b1-3)[Fuc(a1-4)]GlcNAc(b1-2)Man(a1-3)]Man(b1-4)GlcNAc(b1-4)GlcNAc
Outline: as §1

[20] = target: Fuc(a1-2)Gal(b1-3)[Fuc(a1-4)]GlcNAc(b1-2)Man(a1-3)[Fuc(a1-2)Gal(b1-3)[Fuc(a1-4)]GlcNAc(b1-2)Man(a1-6)]Man(b1-4)GlcNAc(b1-4)GlcNAc
Outline: as §1

[21] = target: Fuc(a1-2)Gal(b1-3)[Fuc(a1-4)]GlcNAc(b1-2)Man(a1-3)[Fuc(a1-2)Gal(b1-3)[Fuc(a1-4)]GlcNAc(b1-2)Man(a1-6)]Man(b1-4)GlcNAc(b1-4)[Fuc(a1-6)]GlcNAc(b1-4)[Fuc(a1-6)]GlcNAc
Outline: as §1

[22] = target: Fuc(a1-2)Gal(b1-3)[Fuc(a1-4)]GlcNAc(b1-3)[Fuc(a1-3)[Gal(b1-4)]GlcNAc(b1-6)]Gal(b1-4)Glc
Outline: as §1

[23] = target: Fuc(a1-2)Gal(b1-3)[Fuc(a1-4)]GlcNAc(b1-3)[Gal(b1-4)GlcNAc(b1-6)]Gal(b1-4)Glc
Outline: as §1

[24] = target: Fuc(a1-2)Gal(b1-4)Fuc(a1-3)]GlcNAc(b1-2)Man(a1-3)[Fuc(a1-2)Gal(b1-4)[Fuc(a1-3)]GlcNAc(b1-2)Man(a1-6)]Man(b1-4)GlcNAc(b1-4)GlcNAc
Outline: as §1

[25] = target: Fuc(a1-2)Gal(b1-4)Glc
Outline: as §1

[26] = target: Fuc(a1-2)Gal(b1-4)Glc6S
Outline: as §1

[27] = target: Fuc(a1-2)Gal(b1-4)GlcNAc
Outline: as §1

[28] = target: Fuc(a1-2)Gal(b1-4)GlcNAc(b1-2)Man
Outline: as §1

[29] = target: Fuc(a1-2)Gal(b1-4)GlcNAc(b1-2)Man(a1-3)[Fuc(a1-2)Gal(b1-4)GlcNAc(b1-2)Man(a1-6)]Man(b1-4)GlcNAc(b1-4)GlcNAc
Outline: as §1

[30] = target: Fuc(a1-2)Gal(b1-4)GlcNAc(b1-2)Man(a1-3)[Fuc(a1-2)Gal(b1-4)GlcNAc(b1-2)Man(a1-6)]Man(b1-4)GlcNAc(b1-4)[Fuc(a1-6)]GlcNAc
Outline: as §1

[31] = target: Fuc(a1-2)Gal(b1-4)GlcNAc(b1-2)[Fuc(a1-2)Gal(b1-4)GlcNAc(b1-4)]Man(a1-3)[Fuc(a1-2)Gal(b1-4)GlcNAc(b1-2)Man(a1-6)]Man(b1-4)GlcNAc(b1-4)GlcNAc
Outline: as §1

[32] = target: Fuc(a1-2)Gal(b1-4)GlcNAc(b1-3)Gal(b1-4)GlcNAc
Outline: as §1

[33] = target: Fuc(a1-2)Gal(b1-4)GlcNAc(b1-3)Gal(b1-4)GlcNAc(b1-2)Man(a1-3)[Fuc(a1-2)Gal(b1-4)GlcNAc(b1-3)Gal(b1-4)GlcNAc(b1-2)Man(a1-6)]Man(b1-4)GlcNAc(b1-4)GlcNAc
Outline: as §1

[34] = target: Fuc(a1-2)Gal(b1-4)GlcNAc(b1-3)Gal(b1-4)GlcNAc(b1-3)Gal(b1-4)GlcNAc
Outline: as §1

[35] = target: Fuc(a1-2)Gal(b1-4)GlcNAc(b1-3)GalNAc
Outline: as §1

[36] = target: Fuc(a1-2)Gal(b1-4)GlcNAc(b1-3)[Fuc(a1-2)Gal(b1-4)GlcNAc(b1-6)]GalNAc
Outline: as §1

[37] = target: Fuc(a1-2)Gal(b1-4)GlcNAc(b1-3)[Fuc(a1-3)[Gal(b1-4)]GlcNAc(b1-6)]Gal(b1-4)Glc
Outline: as §1

B1: PpFlo2 (Pichia pastoris) (protein)
chain: MGSSHHHHHHSSGLVPRGSHMDDSGNGDNSDTAYGCDITTNAVDGFDATIYQYNANDLRLIRDPTFMSTGYLGRNVLNKISGVTVPGFNIWNPSSRTATVYGVKNVNYYNMVLELKGYFKADVSGDYKLTLSHIDDSSMLFFGKETAFKCCDAGSIPLNEAPTDYSLFTIKPSNQVNSEVISATQYLEAGKYYPVRIVFVNALERARFDFKLTIPSGAVLDDFQNYIYQFGDLDENSCHE
glycan array binding signal (z-score) [1]: -0.289 | glycan array binding signal (z-score) [2]: -0.292 | glycan array binding signal (z-score) [3]: -0.302 | glycan array binding signal (z-score) [4]: -0.295 | glycan array binding signal (z-score) [5]: -0.295 | glycan array binding signal (z-score) [6]: -0.3 | glycan array binding signal (z-score) [7]: -0.297 | glycan array binding signal (z-score) [8]: -0.288 | glycan array binding signal (z-score) [9]: -0.283 | glycan array binding signal (z-score) [10]: -0.285 | glycan array binding signal (z-score) [11]: -0.279 | glycan array binding signal (z-score) [12]: -0.279 | glycan array binding signal (z-score) [13]: -0.234 | glycan array binding signal (z-score) [14]: -0.305 | glycan array binding signal (z-score) [15]: -0.285 | glycan array binding signal (z-score) [16]: -0.27 | glycan array binding signal (z-score) [17]: -0.272 | glycan array binding signal (z-score) [18]: -0.3 | glycan array binding signal (z-score) [19]: -0.27 | glycan array binding signal (z-score) [20]: -0.346 | glycan array binding signal (z-score) [21]: -0.25 | glycan array binding signal (z-score) [22]: -0.288 | glycan array binding signal (z-score) [23]: -0.272 | glycan array binding signal (z-score) [24]: -0.266 | glycan array binding signal (z-score) [25]: -0.232 | glycan array binding signal (z-score) [26]: -0.299 | glycan array binding signal (z-score) [27]: -0.29 | glycan array binding signal (z-score) [28]: -0.274 | glycan array binding signal (z-score) [29]: -0.259 | glycan array binding signal (z-score) [30]: -0.295 | glycan array binding signal (z-score) [31]: -0.29 | glycan array binding signal (z-score) [32]: -0.281 | glycan array binding signal (z-score) [33]: -0.217 | glycan array binding signal (z-score) [34]: -0.254 | glycan array binding signal (z-score) [35]: -0.251 | glycan array binding signal (z-score) [36]: 0.265 | glycan array binding signal (z-score) [37]: -0.268
